Laboratory results as given in PubChem BioAssay AID2147 (National Center for Advancing Translational Sciences (NCATS), 2009).
The campaign covered roughly 230,000 compounds. About 3,600 (1.6%) were called active. Inconclusive means that the source gave no clear call. Such entries were picked first, then a sample of the others. Calls follow the shape of the dose curve; as a rule, active = well fitted inhibition curve with a large enough effect (not every such curve was filed as active); inconclusive = small, poorly fitted or top-dose-only effect, or another doubt; inactive = no such curve, though single readings can be large or run the other way. A potency beside an inconclusive call is a rough fit, not a confirmed value.

Target: Lysine-specific demethylase 4E (Homo sapiens) (UniProt B2RXH2)
Experiment: qHTS Assay for Inhibitors of Human Jumonji Domain Containing 2E (JMJD2E)
Conditions: JMJD2E catalytic domain, FDH-coupled NADH fluorescence (FDH is formaldehyde dehydrogenase); series mostly up to 57.1 µM
Also: nearly all actives have a fitted effect of over 50% in size.
Potency is read from the fitted curve at half-maximal effect; tags tell the direction and shape of the fitted curve.

Sequence of UniProt B2RXH2 (B2RXH2 whole entry, looked up, the tested form may be a part): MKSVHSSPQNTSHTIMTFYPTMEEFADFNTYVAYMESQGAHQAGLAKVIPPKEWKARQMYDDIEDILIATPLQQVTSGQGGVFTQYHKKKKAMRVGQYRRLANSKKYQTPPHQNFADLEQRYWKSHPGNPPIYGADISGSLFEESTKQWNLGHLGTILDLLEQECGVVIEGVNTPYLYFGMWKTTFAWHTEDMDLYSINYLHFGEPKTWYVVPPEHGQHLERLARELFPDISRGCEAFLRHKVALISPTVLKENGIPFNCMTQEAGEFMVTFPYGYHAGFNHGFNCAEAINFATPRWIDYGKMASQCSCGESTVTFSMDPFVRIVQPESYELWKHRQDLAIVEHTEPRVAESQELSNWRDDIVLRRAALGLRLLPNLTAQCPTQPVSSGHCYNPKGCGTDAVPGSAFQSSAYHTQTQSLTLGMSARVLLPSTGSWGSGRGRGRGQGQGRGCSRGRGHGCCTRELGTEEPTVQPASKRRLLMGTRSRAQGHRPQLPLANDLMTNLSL

SMILES | Potency
N#CC1=C2SCN(Cc3ccccc3)CN2C(=O)CC1c1ccc2c(c1)OCO2 (configuration not stated) | inconclusive: 28.2 µM [inhibitor, partial curve]
COc1ccc(OCC(=O)Nc2nc3ccc(NC(C)=O)cc3s2)cc1 | inconclusive: 39.8 µM [inhibitor, single point]
NC(=O)c1c(N)sc2c1CCCC2 | inconclusive: 25.1 µM [inhibitor, partial curve]
CCC(=O)N1Cc2ccccc2-c2ccccc2C1=O | inconclusive: 39.8 µM [inhibitor, single point]
O=c1c2[nH]c3ccccc3c2ncn1C1CCCCC1 | inconclusive: 35.5 µM [inhibitor, single point]
Cc1cc(C)cc(NC(=S)Nc2ccc3cn[nH]c3c2)c1 | inconclusive: 2.82 µM [inhibitor, full curve, poor fit]
Cc1cccn2c(=O)c3cc(C(=O)NCCN4CCOCC4)c(=N)n(CCc4ccccc4)c3nc12 | inconclusive: 14.1 µM [inhibitor, partial curve]
O=C(O)c1ccccc1N/C=C\[N+](=O)[O-] | inconclusive: 31.6 µM [inhibitor, partial curve]
Cc1sc(NC(=O)c2ccc(Br)s2)c(C(N)=O)c1C | inconclusive: 35.5 µM [inhibitor, single point]
O=C(N/N=C/c1c(Cl)[nH]c2ccccc12)c1sc2ccccc2c1Cl | inconclusive: 39.8 µM [inhibitor, single point]
CCN1CCCC1CNCc1ccc(OCc2ccc(Cl)nc2)c(OC)c1 (configuration not stated) | inactive
O=C(/C=C/c1cccs1)Nc1nccs1 | inconclusive: 35.5 µM [inhibitor, single point]
CCN(CC(O)CON=C1c2ccccc2-c2ccccc21)S(=O)(=O)c1ccc(C)cc1 (configuration not stated) | inconclusive: 35.5 µM [inhibitor, single point]
CCCc1[nH]n(-c2ccc([N+](=O)[O-])cc2)c(=O)c1C(C)=NCc1ccncc1 | inconclusive: 39.8 µM [inhibitor, single point]
S=c1[nH]nc(-c2ccncc2)n1/N=C/C=C/c1ccccc1 | inactive
CCCCn1c(NC(=O)c2ccccc2)nc2ccccc21 | inconclusive: 35.5 µM [inhibitor, single point]
CCN(CC)CCNC(=O)c1ccc(NC(=O)/C=C/c2cc(OC)c(OC)c(OC)c2)cc1 | inconclusive: 25.1 µM [inhibitor, single point]
O=C(c1ccco1)n1c(=S)nc2ccccn21 | inconclusive: 35.5 µM [inhibitor, single point]
Cc1ccc(/C=C/C(=O)Nc2ccncc2)o1 | inconclusive: 31.6 µM [inhibitor, partial curve]
Cc1ccc2nc(/C=C/c3cccc(F)c3)ccc2c1 | inconclusive: 35.5 µM [inhibitor, partial curve]
Cc1cn2c(nc(=O)c3cccnc32)s1 | inconclusive: 31.6 µM [inhibitor, partial curve]
Nc1nc(-c2ccc(Br)cc2)cc(C(F)(F)F)n1 | inconclusive: 39.8 µM [inhibitor, single point]
CCOC(=O)c1cnc2ccc(C(=O)OC)cc2c1NCCN1CCOCC1 | inconclusive: 39.8 µM [inhibitor, single point]
CCN(CC)C(=S)Nc1cc(C(=O)OC)ccc1C(=O)OC | inconclusive: 28.2 µM [inhibitor, partial curve]

SMILES | Potency
Cc1cc(=O)oc(C)c1C(=O)OCC(=O)c1ccccc1 | inactive
CCCCN(CC)C(=O)c1cccc(Cl)c1 | inactive
O=C(c1ccco1)N1CCCN(Cc2nc(-c3cccs3)no2)CC1 | inactive
CC(=O)Oc1ccc(/C=C2/Oc3ccccc3C2=O)cc1 | inconclusive: 25.1 µM [inhibitor, single point]
COc1ccc(-c2cc(C(F)F)n3ncc(C(=O)n4ccnc4C)c3n2)cc1 | inconclusive: 28.2 µM [inhibitor, partial curve]
CCOC(=O)c1cc2c(nc1N)CC(C)(CC)OC2 (configuration not stated) | inconclusive: 28.2 µM [inhibitor, partial curve]
CC(C)N1CC=C2C(C#N)=C(N)C(C#N)(C#N)[C@H](c3ccoc3)[C@H]2C1 | inconclusive: 22.4 µM [inhibitor, partial curve]
N#Cc1c(N)sc(=S)c2c1CCCC2 | inactive
CN(Cc1cn(-c2ccccc2)nc1-c1ccc(Cl)cc1)C(=O)CCC(=O)O | inconclusive: 25.1 µM [inhibitor, single point]
CCOc1ccc(NC(=O)CC2C(=O)N(CC)C(=S)N2CCNC(C)=O)cc1 (configuration not stated) | inactive
c1ccc(-c2nnc3sc(Cc4cccs4)nn23)cc1 | inactive
O=c1[nH]c(SCc2nc3ccccc3c(=O)n2-c2ccccc2)nc2ccccc12 | inconclusive: 35.5 µM [inhibitor, single point]
COCc1cc(=O)n2[nH]c(-c3ccccc3)cc2n1 | inconclusive: 28.2 µM [inhibitor, partial curve]
C/C(=N\Nc1cc(C)nc(-c2ccccc2O)n1)c1ccccc1O | inconclusive: 25.1 µM [inhibitor, single point]
O=C(O)/C=C/c1ccc2c(c1)OCCO2 | inconclusive: 20 µM [inhibitor, single point]
CN(C)CC(CCC(CN(C)C)C(=O)c1ccccc1)C(=O)c1ccccc1 (configuration not stated) | inactive
Cc1ccc2cc(CN(Cc3ccc4c(c3)OCO4)Cc3nnnn3Cc3ccco3)c(=O)[nH]c2c1 | inconclusive: 35.5 µM [inhibitor, single point]
c1ccc(Cn2c(-c3cncs3)nc3ccccc32)cc1 | inconclusive: 39.8 µM [inhibitor, single point]
C[C@@H]1O[C@@H](OC[C@H]2O[C@@H](Oc3c(-c4cccc(O)c4O)oc4cc(O)cc(O)c4c3=O)[C@H](O)[C@@H](O)[C@@H]2O)[C@H](O)[C@H](O)[C@H]1O | active: 7.08 µM
Cc1cc(C)c2nc(SCC(=O)N3CC(=O)Nc4ccccc43)c(C#N)cc2c1 | inactive
Cc1ccc(/C=N/Nc2ccc3ccccc3n2)o1 | inconclusive: 25.1 µM [inhibitor, partial curve]
COC(=O)C1(C(=O)OC)CC2=CCC3C(=O)N(c4ccccc4)C(=O)C3C2Cc2ccccc2[C@@H]1C[N+](=O)[O-] (some centres not stated) | inactive
Cc1cc(C)c(C)c(N=Nc2nc3ccccc3n2C)c1C | inconclusive: 31.6 µM [inhibitor, single point]
Cc1ccc(C(=O)NCCSC(C)(C)C)cc1 | inactive

SMILES | Potency
COc1ccc(CN2C(=O)c3ccccc3C2C(=O)NC2CCCC(C)C2C)c(OC)c1 (configuration not stated) | inactive
CC(=O)NC1C(=O)N(CCc2ccccc2)c2ccccc21 (configuration not stated) | inconclusive: 7.08 µM [inhibitor, single point]
CN(C)c1ccc(-c2nnn(CC(=O)Nc3ccccc3N3CCOCC3)n2)cc1 | inconclusive: 35.5 µM [inhibitor, single point]
Cc1ccc2nc(CSc3nnc(-c4ccncc4)n3C)cc(=O)n2c1 | inconclusive: 31.6 µM [inhibitor, single point]
O=C(Oc1ccc(Cl)cc1)c1ccc(N2CCOCC2)c([N+](=O)[O-])c1 | inactive
Nc1c(C(=O)NCc2ccccc2)c2nc3ccccc3nc2n1CCCN1CCOCC1 | inconclusive: 31.6 µM [inhibitor, partial curve]
Cc1cc(C)nc(SCC(=O)NC2CCCC2)n1 | inactive
Cc1cnc(C(=O)Nc2cccc(-c3nnc4n3CCCCC4)c2)cn1 | inactive
CC(C)Oc1ccc(CNCC2(O)CCOC(C)(C)C2)cc1 (configuration not stated) | inconclusive: 28.2 µM [inhibitor, single point]
COc1cccc(C(=O)/C=C/Nc2ccc(S(=O)(=O)Nc3nc(C)cc(C)n3)cc2)c1 | inconclusive: 39.8 µM [inhibitor, single point]
O=C(O)c1cnn2c1C(=O)N(Cc1cccs1)CC2 | inactive
Cc1ccc(-n2nc(C)c3c(C)c(CCC(=O)NC(C)c4ccccc4)c(C)nc32)cc1 (configuration not stated) | inconclusive: 3.16 µM [inhibitor, partial curve]
CCOC(=O)NC(Nc1ccc(C)cn1)(C(F)(F)F)C(F)(F)F | inconclusive: 39.8 µM [inhibitor, single point]
CN(C)/C=C1\N=C(c2cccnc2Oc2ccc(Cl)cc2)OC1=O | inconclusive: 31.6 µM [inhibitor, single point]
CCOC(=O)C1=C(N)OC(C)=C(C#N)C1c1ccco1 (configuration not stated) | inactive
CSc1ccc(CNc2ccc(C)c(C)c2)cc1 | inactive
COc1ccc(F)cc1CN1CCN(c2cc(C)nc3c4c(C)cc(C)nc4nn23)CC1 | inconclusive: 28.2 µM [inhibitor, partial curve]
O=C(OCC(=O)N1c2ccccc2Sc2ccccc21)c1ccc[n+]([O-])c1 | inactive
O=C(CC(=O)c1ccccc1)c1ccccc1 | inconclusive: 28.2 µM [inhibitor, single point]
Cc1cc(C)nc(N(C#N)Cc2ccccc2Cl)n1 | inactive
CCOC(=O)N1CCC(N2Cc3cccc(C(=O)Nc4ccc(OC)c(OC)c4)c3C2=O)CC1 | inactive
COc1ccc2nc(C)cc(C(=O)O)c2c1 | inconclusive: 31.6 µM [inhibitor, partial curve]
Cc1ccc(-c2nn(-c3cccc(F)c3)cc2CNCc2cccnc2)o1 | inconclusive: 28.2 µM [inhibitor, partial curve]
CCCn1cnc2cc(NCc3cccc(OC)c3)ccc21 | inconclusive: 28.2 µM [inhibitor, partial curve]
